Experimental data: the supplement of paper PMC3334620
Whole data set: some 33,000 sequences, median “E-score (-0.5 to 0.5)” near -0.054, cut for the highest 2% near 0.39. This is one part of the list.

molecular target: Ylr278c (UniProt Q05854); experiment: PBM E-score (8-mer binding enrichment) (E-score (-0.5 to 0.5)); higher = stronger / more preferred TF binding; most listed sequences are background and not binding sites; details: protein concentration: 200 nM; construct: GST-DNA-binding domain
In short: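 Universal all-10-mer Agilent arrays, fresh or stripped once, were converted to double-stranded form by primer extension. GST-tagged yeast transcription factors from PURExpress in vitro transcription/translation, full-length or DNA-binding domain only, were applied at about 100-200 nM and detected with fluorescent anti-GST. After masliner normalisation, the Universal PBM Analysis Suite scored each ungapped eight-base word together with its reverse complement by E-score.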

Sequence | PBM E-score
CTCACTCC | 0.205
GCACGCGA | 0.0479
CTAAGTCC | 0.161
CAGAACGC | 0.0352
GAACCCGA | 0.146
GCACTACC | -0.0883
AGGTAACA | -0.0992
GAATGAAC | -0.0135
GCAATCCC | 0.316
AAGCAGCG | -0.0544
ACAGTCGA | -0.289
AAAAGAAA | -0.0701
CTGTTCTC | 0.0566
CGCGAACC | 0.24
AAGTTTTC | 0.0117
CGACAAAG | 0.0949
ATTCCTGC | 0.0732
CCCTCGGC | 0.207
GAGTCTCC | 0.291
CAAATCTA | -0.174
GCAAACAC | -0.128
ACGCAAAG | -0.0959
AAAGTCCT | 0.226
GTGTCTAA | -0.383
ACGACTTG | -0.229

Sequence | PBM E-score
CATGAAGA | -0.185
AAGGGAGT | -0.314
GTCCTATA | -0.183
AGACGAAG | -0.0807
CGACGATA | -0.033
AAATGCAA | -0.269
AACGTGGA | -0.238
AGTTCTGA | -0.201
CGCGTATC | 0.144
AGGTAATC | 0.082
ATTCCGGG | 0.443
AAAGGGCA | -0.178
ATAAGACA | -0.183
CAACTTCA | -0.217
TGGGAACA | -0.124
CTGCTTAC | -0.149
AGCCCACG | -0.0945
ACAACAGC | -0.175
CGAGAGAG | 0.067
GGCGGCCC | 0.13
AACATTCA | 0.00265
GTCGTTGA | -0.225
CCATTAGG | -0.305
CGAACGAG | -0.101
AATACGAC | -0.195

Sequence | PBM E-score
AGCGGCTC | 0.165
AATCTGGA | -0.0162
GGCCATAA | -0.0554
CCGGATAC | 0.384
AATACATC | 0.128
ACTTACTA | -0.18
CTTTCTAA | -0.155
ATACCCCA | 0.00063
AGGATCAA | 0.0948
ATAATCTG | -0.214
AAATCCCT | -0.0491
ACCCCACC | 0.259
CAAGATCA | -0.212
CGACTCAG | -0.0452
GCAAGGTA | -0.231
CAGCCCCA | -0.101
CCTATGAA | -0.205
GGATACAA | -0.00253
TGGGGACA | -0.14
GAGTCTCA | -0.115
AGACATTA | -0.0914
CAAAGGCG | -0.146
ATTGTGAA | -0.17
CCTTAAAC | -0.173
CGGACCGA | 0.409

Sequence | PBM E-score
ACCTCACA | -0.0167
CACCGCGG | 0.294
ACCTCGAG | 0.00411
CATTATTA | 0.0225
CCCTGGAA | -0.149
AGCACGGA | 0.211
ACACACCC | 0.0283
TGGATAAA | 0.0471
ACGTATCC | -0.0765
CGTTGTCC | 0.159
CCCGGGAC | 0.394
TCACAAAA | 0.147
CTTGTGTC | -0.174
CCTGCCGA | 0.0781
TCCATAGA | -0.0419
GTACACTA | -0.223
CTATGGCC | -0.12
CCCGAGGC | 0.14
ATGCCAAG | -0.154
CCAACTCG | -0.149
ACGGGTTA | -0.0173
TAGTGTGA | -0.285
AGTCGCGA | 0.0519
AGCTATCC | 0.0371
ACAAATGG | -0.122

Sequence | PBM E-score
CTGTACTA | -0.129
CTACACGC | -0.235
AAGTTACA | -0.173
GATTAAAA | 0.0412
CACATGGC | -0.156
AGAAGACC | 0.0375
AGGTTCAT | -0.151
CGTAACTC | 0.0375
CATACCAC | -0.0683
CCGCGTGC | 0.164
CATACACA | -0.29
AATTAAAA | -0.084
ATTCCCGA | 0.338
ACGTTTAC | -0.157
TGTTTTAA | -0.0312
CGAATGGA | -0.121
AATGAATG | 0.0714
AGACTCAA | -0.227
CTAAAACA | -0.0571
CCTCGGTC | -0.0689
CATTAGAG | -0.183
CTTAGAAC | -0.0645
CATCCGGA | 0.436
ACCCACCA | -0.0109
ATGTCGAA | -0.0534

Sequence | PBM E-score
GGGGCGGA | 0.412
TACACTCA | -0.121
AGTAGTCC | 0.154
CTCTAGTA | -0.0247
AATTCTTC | 0.105
ACCACGAT | -0.249
GCTCGTGA | 0.0305
CTCTAACA | -0.269
AAGTGGCG | -0.0285
CATTCTGG | -0.108
CTGAAGGA | -0.204
CATTACAC | -0.143
GGTTCTAA | 0.0848
CGATATGC | 0.0231
CCTCTTTC | -0.0384
GTCCACCA | 0.00454
CAGTTTGG | -0.253
GCGTGAGC | 0.089
ATCCACCG | 0.139
CCCTTGAA | -0.0298
ACCGCTAT | 0.109
TAAGGAGA | -0.0918
ATTTGTGC | -0.0582
CCACCTGG | -0.207
ATGTTTCG | 0.0356

Sequence | PBM E-score
CGTGGTAA | -0.231
GCAATGCA | -0.168
AGAGCCTG | -0.374
ACTGGTTG | 0.059
AGTCAGAC | -0.0921
GAAAATGC | -0.0064
AGCCGATC | 0.144
CAGATACC | -0.0274
CCTATCAG | -0.242
ATCAACGG | 0.139
TCTAAGAA | -0.0197
ACAATTAC | -0.197
AGACCGCG | 0.105
ACTCGTAG | -0.123
GCCAGCGC | -0.0552
AACCCCTA | -0.103
AGAGATAG | -0.0754
GCCGGGCA | 0.304
ATACTTGA | -0.345
ACTTTGGG | -0.0123
AAGGTACG | -0.0771
CAGACTGC | -0.226
GTGAATGA | 0.0235
ACCCTTTA | -0.0529
ACGGCAAA | 0.203

Sequence | PBM E-score
AGCCCCCC | -0.285
CAATATCG | 0.0834
ATTATAAG | -0.0477
GCTTAGGA | -0.105
CCATTACA | -0.027
CGGAGCCA | 0.402
GAGGGCAC | -0.214
CCTATGCG | -0.0142
AACCGTCG | 0.0961
ATCCCGCA | 0.152
CATCGTGC | -0.217
AAAAGCGA | 0.103
GTCCTTGA | -0.223
CGCAGAGC | -0.0693
CTAACTGC | -0.033
AACCCCCC | -0.249
ATGCCCCC | -0.143
GCATCTTA | -0.122
ACCTACAG | -0.0218
CTCCGTGA | 0.425
CCAATTAC | 0.0104
AATGGTAG | -0.111
GACCACAA | 0.0467
GTCGCTGA | -0.11
CATCAAGG | -0.301

Sequence | PBM E-score
GTACTAAC | -0.0507
ACATACAG | -0.118
GAGACTAC | 0.0263
CCGAAAAC | 0.344
AAGACTGA | -0.224
AAATGCTG | -0.133
AGCGATGG | 0.0514
CTGGCCGC | -0.0564
CTCAGTAA | -0.0944
GAATAAGA | 0.0588
CTTGGTGA | -0.0321
AATTAAGC | 0.092
CCTGAGTA | -0.136
CCGGAAGG | 0.387
AACTATGC | 0.0447
CTTTAACC | -0.144
ACGTTGAG | -0.111
AAGCCAAA | -0.0886
CATAGCCC | -0.19
ATAAACTG | -0.0601
TAGAATAA | 0.108
AAATTATA | 0.21
CATCTGGC | -0.0551
CATTTCGA | 0.033
CTGGAATC | -0.0172

Sequence | PBM E-score
TCATTGAA | -0.169
GAGCGGGA | 0.192
CACAGGCC | -0.133
GGGCACAC | -0.173
ACCTGCAT | -0.121
CTAATAAG | -0.254
ATCCTCAT | -0.222
AGGCAGTC | -0.0589
GGTCCGCA | 0.278
CCTTCTCC | 0.156
CCAACGTC | -0.142
CTCAATTA | -0.212
CGACACGA | 0.0964
AACGAAGC | -0.0318
AAACCTGT | -0.0896
ACTAGCAT | -0.086
ACATATTC | 0.0463
CAGACGGA | 0.188
CGCATACC | 0.186
AAGGCATG | -0.206
AGGCGTAA | -0.156
AAAGTTTC | -0.12
GAGTCGCA | -0.25
CAGGTGAG | -0.353
GGCAATGA | -0.123

Sequence | PBM E-score
CACGCTGG | -0.163
CAAGTACA | -0.049
CTGACTTC | 0.088
GGCCCCAC | 0.0371
AGCAACCG | -0.0664
CATCAGGG | -0.141
AACGGGCT | 0.0368
GGTGATTA | 0.0698
ACCCTCCA | -0.209
AATCGGCC | 0.24
CCGATCCA | 0.208
AACTTGCG | -0.0744
ATCAGACA | -0.161
CTAGTTAC | 0.00831
AAGGATTA | -0.0512
GTACATTA | -0.0177
AGGTTGAC | -0.187
AGTTTGTG | -0.105
CTCATGAA | -0.142
ATAAACAA | -0.0102
CAGGGGCA | -0.0773
CTCCTTCA | -0.334
AGGGATAT | 0.0131
GTCAAACA | -0.248
CCCATGGC | -0.0499

Sequence | PBM E-score
AATTTGCA | -0.0325
GCGTAACA | 0.00805
CCGTATCC | 0.223
CATGTGCC | -0.095
ATCCACGG | 0.199
GTCCCGTA | -0.0338
CACACTAC | -0.157
AATTTAAC | 0.0785
GTAGCATA | -0.0709
TTAAAAAA | -0.12
GTAAGGAA | -0.134
CGAGCGAG | 0.164
ACCCCGTG | 0.298
CGTAATAC | -0.0173
CCGCTGGA | 0.146
ATTATTCG | 0.13
CTCCAGGC | -0.113
CTTGCGGC | 0.0631
AATCCCGG | 0.439
GGCAGCAA | -0.0531
ACACCCTC | 0.0306
ATGCGACA | -0.142
GGCCGGCC | 0.372
GCGAACGA | -0.0482
CTTCTGCA | -0.0808

Sequence | PBM E-score
ACAATTTA | -0.193
AACGCACG | 0.061
GAATCTGA | -0.0915
TCACACAA | -0.238
AAGTTTGA | 0.0364
CACGAGCC | -0.0294
ACGTCCGA | 0.346
AGTCTTAC | -0.27
AGCTTGCA | -0.0898
AAGATGTC | -0.0338
AATCGTGT | 0.121
CTTTCCAA | 0.0711
AAGCACAT | 0.0518
AACTCGGA | 0.392
AGACGTCA | -0.227
CATGGTGG | -0.0593
CGTATTCC | 0.17
GCAGACCC | -0.0641
CGGCAGCC | 0.296
AATCTTAC | 0.0781
AGTCCATA | -0.217
GATCCGAC | 0.285
ACTCGGCT | 0.0553
AGAGATTA | -0.143
ACCCGACG | 0.235

Sequence | PBM E-score
CATAGGAG | -0.136
ACTAACCA | -0.0811
GCGCCTAA | 0.0272
CACCGAAA | 0.184
CTCACAGC | -0.167
ACCAATTG | -0.257
ATCTGCGG | 0.281
AAATCCTA | 0.0982
AGAACCGG | 0.345
ACGCCTCC | 0.145
ATCCCCAG | -0.0933
AGGGGGAG | -0.183
AGCCGTTG | -0.00615
ACTGAAGA | 0.0196
ATCTGAAT | -0.161
CCGTTGCC | 0.16
CCCGGCGC | 0.338
GGCTGTCA | -0.302
ACAGGGAG | -0.105
